Measured values: paper PMC6919601, “Identification of Plasmodium dipeptidyl aminopeptidase allosteric inhibitors by high throughput screening” (PLoS ONE, 2019)
Hit rate of the full screen: of about 110,000 compounds, about 230 (0.21%) showed an effect of 50% or more. Some of the results follow.

The molecules below were run against DPAP1 (Plasmodium falciparum, UniProt Q8IIJ9) (assay: primary screen, percent inhibition; read by cleavage of a fluorogenic dipeptide substrate; higher = more effect of the substance).
Design: species or system P. falciparum D10 trophozoite lysates; single well
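Further: 30 min substrate incubation versus DMSO and 10 µM JCP410 controls.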

DPAP1, sequence (Q8IIJ9 whole entry, looked up): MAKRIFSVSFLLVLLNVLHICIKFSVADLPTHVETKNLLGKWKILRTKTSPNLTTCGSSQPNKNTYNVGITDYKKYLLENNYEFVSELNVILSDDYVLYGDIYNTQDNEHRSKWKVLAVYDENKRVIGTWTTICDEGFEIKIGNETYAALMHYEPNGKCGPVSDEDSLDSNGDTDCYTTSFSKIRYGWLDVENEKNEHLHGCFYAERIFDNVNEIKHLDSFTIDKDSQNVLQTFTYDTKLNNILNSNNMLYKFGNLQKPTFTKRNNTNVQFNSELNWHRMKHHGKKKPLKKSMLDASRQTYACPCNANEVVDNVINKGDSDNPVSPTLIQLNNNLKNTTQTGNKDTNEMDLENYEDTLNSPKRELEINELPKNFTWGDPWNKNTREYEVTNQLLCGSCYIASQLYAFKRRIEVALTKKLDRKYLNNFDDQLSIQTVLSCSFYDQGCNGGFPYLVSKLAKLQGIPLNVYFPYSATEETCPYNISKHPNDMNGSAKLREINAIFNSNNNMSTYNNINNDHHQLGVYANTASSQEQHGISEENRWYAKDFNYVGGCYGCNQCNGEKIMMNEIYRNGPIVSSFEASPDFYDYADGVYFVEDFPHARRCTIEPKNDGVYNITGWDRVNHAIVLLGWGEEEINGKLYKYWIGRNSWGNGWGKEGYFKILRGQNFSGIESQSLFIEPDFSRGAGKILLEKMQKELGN

Structure (SMILES) | % Inhibition @ 10 uM [%]
CC(=O)Nc1ccc(S(=O)(=O)Nc2cccc(C(C)=O)c2)cc1 | 3.8
CCOC(=O)c1ccc2nc(C(F)(F)F)nc(NCCCO)c2c1 | 0.627
CCOc1ccc(C2(O)CSC3=C(C#N)C(c4ccc(O)c(OC)c4)CC(=O)N32)cc1 (centres unmarked) | -1.96
Cc1nn(-c2ccccc2)c(C)c1NC(=O)c1cccs1 | 2.84
Cc1ccc2c(c1)C(C)(c1ccccc1)CC(C)(C)N2C(=O)CN1CCOCC1 (centres unmarked) | 0.324
COc1ccc(-c2cc(-c3ccccc3)nc(S)c2C#N)cc1 | 43.3
COc1ccc(/C=C/C(=O)O)cc1S(=O)(=O)NC1CCS(=O)(=O)C1 (centres unmarked) | 0.997
Cc1nn(-c2ccccn2)c(CC(C)(C)C(=O)O)c1C(=O)O | -0.834
CCC(Sc1nncn2c1cc1occc12)C(=O)NCCc1ccccc1 (centres unmarked) | -4.99
Cc1ccc2c(c1)C1=C(C(c3ccccc3F)O2)C(c2ccccc2)n2ncnc2N1 (centres unmarked) | -1.62
CCCc1ccc(C(C)NC(=O)c2cc(C)on2)cc1 (centres unmarked) | -2.09
COc1ccccc1NS(=O)(=O)c1ccc(NC(=O)c2c(Cl)c(C)nn2C)cc1 | 0.983
C1CN(c2nc(N3CCOCC3)nc(N3CCOCC3)n2)CCN1 | 2.4
Cc1ccc(S(=O)(=O)c2cnc3cc(F)c(F)cc3c2O)cc1 | -3.45
C=CCn1c(=O)sc2cc(Br)ccc21 | 3.15
CC(C)Oc1ccc(C2CC(=O)NC(=O)N2)cc1 (centres unmarked) | -4.52
CC1CCN(c2oc(-c3ccc(F)cc3)nc2S(=O)(=O)c2ccccc2)CC1 | 0.032
Cc1ccc(-n2c(SCC(=O)Nc3nnc(C)s3)nc3c4ccccc4nc-3c2O)cc1 | 4.06
O=S(=O)(Nc1ccc(F)cc1)c1ccc2ccccc2c1 | -3.03
O=C(O)CCS(=O)(=O)c1ccc2ccccc2c1 | -0.736
CC(=O)CSc1cccc2c(SCC(C)=O)cccc12 | -5.47
Cc1ccc(CNS(=O)(=O)c2ccc(-c3ccc(O)nn3)s2)o1 | -1.06
CC(=O)Nc1ccc(-c2ccc(OCc3ccc([N+](=O)[O-])cc3)cc2)cc1 | 4.17
CN1CCN(Cc2ccc(C(F)(F)F)cc2)CC1 | -9.49
CCCC(=O)N1CCC(c2c[nH]c3ccccc23)(c2c[nH]c3ccccc23)CC1 | -6.24
COCc1[nH]c2ccc([N+](=O)[O-])cc2c1-c1ccccc1 | 1.2

Structure (SMILES) | % Inhibition @ 10 uM [%]
COc1ccc(-c2nc3s/c(=C\c4cccc(Cl)c4)c(=O)n3n2)cc1OC | -1.18
O=C(c1ccc(F)cc1)n1nc(-c2ccco2)nc1NCc1cccs1 | 3.31
CC1=C(C(=O)OCc2ccccc2)C(c2cccc(F)c2)C2=C(O)CCCC2=N1 (centres unmarked) | -5.59
Cc1ccc(NC=C2C(=O)NC(=S)NC2=O)cc1 | 0.266
Cc1ccc(NC(=O)Nc2ccc(C)c(N)c2)cc1N | 7.47
COCCNC(=O)Cn1c(C(=O)OC)ccc1-c1ccco1 | -2.17
O=C(CSc1ncnc2[nH]cnc12)Nc1ccc(Br)cc1Cl | -2.65
COc1ccc(Oc2nc3c(C)cccn3c(=O)c2/C=C(\C#N)S(=O)(=O)c2ccc(C)cc2)cc1 | -9.06
Cc1ccc(C2=NC(=S)N(c3ccc([N+](=O)[O-])cc3)CN2)cc1 | -2.59
N#Cc1cc2c(nc1SCC(=O)Nc1ccc(F)cc1)CCCC2 | 4.75
COc1ccccc1/C=C/c1nc(C#N)c(NCC2CCCO2)o1 (centres unmarked) | 0.895
Cc1ccc(NC(=O)c2cc(C(=O)Nc3ccc(C)cc3)n(C)n2)cc1 | 1.76
Cc1ccc(S(=O)(=O)Nc2cncc(C(=O)NC3CCCC3)c2)cc1 | 1.51
COc1cc(/C=C2/NC(=O)N(CC(=O)Nc3cccc(C)c3)C2=O)cc(Cl)c1O | 7.29
COC(=O)c1sccc1NC(=S)N(C)Cc1ccccc1 | 4.06
COc1cc2c(cc1OC)C(COc1ccccc1OC)N(C(=O)/C=C/c1ccccc1)CC2 (centres unmarked) | 9.62
Sc1nnc(-c2cccnc2)n1C1CCCCC1 | 0.587
CCOC(=O)N1CCN(c2c(NC3CCCC(C)C3C)c(=O)c2=O)CC1 (centres unmarked) | -3.21
CC1CCc2sc(NC(=O)c3ccc(Br)o3)c(C#N)c2C1 (centres unmarked) | 6.5
CCOc1c(Cl)cc(/C=c2\sc3nc4ccccc4n3c2=O)cc1OC | 3.04
COc1ccc(CNC(=O)c2nc(SCc3ccc(F)cc3)ncc2Cl)cc1 | 2.2
O=C(NCC12CC3CC(CC(C3)C1)C2)c1nc(-c2ccc3c(c2)OCO3)no1 | 5.49
O=C(N/C(=C\c1ccccc1F)C(=O)N1CC2CC(C1)c1cccc(=O)n1C2)c1ccccc1 (centres unmarked) | 9.1
Cc1nc2ncnn2c(C)c1CCC(=O)NCCCOC(C)C | 1.26
CCOC(=O)N1CCC(NC2CCCC(C)C2C)CC1 (centres unmarked) | -1.5
O=C1CSc2nnc(Cn3nnc4ccccc43)n2N1 | -2.21

Structure (SMILES) | % Inhibition @ 10 uM [%]
CCc1nn(CC(=O)NC(C)C)c(=O)c2cc3c(OC)cccc3n12 | -1.7
COc1cccc(/C=C2\CN(C)C/C(=C\c3cccc(OC)c3OC)C2=O)c1OC | 8.24
COC(=O)c1nc(N)n(-c2nc(-c3ccc(OC)cc3)cc(C(F)(F)F)n2)n1 | -1.21
CC(=O)N1C(=O)CC(C)N(C(C)=O)c2ccccc21 (centres unmarked) | -3.77
COc1ccc(CCNC(=O)CCCN2C(=O)C(c3ccccc3)Oc3cccnc32)cc1OC (centres unmarked) | -5.07
CC1=C(C(=O)OCCC(C)C)C(c2ccc(Cl)cc2)NC(=O)N1 (centres unmarked) | -3.6
Cc1ccsc1C=C1C(=O)c2ccccc2C1=O | -1.26
Cc1ccc(OCCCc2c(C)n[nH]c2C)c(C)c1 | 6.49
O=C(NCc1cccnc1)c1ccc2c(Cl)c3c(nc2c1)CCCC3 | -2.14
N#Cc1c(C(F)(F)F)cc(-c2cccs2)nc1SCC(=O)N1CCOCC1 | 72.6
CCN1CCN(Cc2cccc([N+](=O)[O-])c2)CC1 | -0.127
CCO/C(O)=C1/C(C)=NC2=C(C(=O)CCC2)C1c1ccccc1 (centres unmarked) | 3.04
Cc1[nH]c(-c2ccc(F)cc2)cc1C(=O)NCc1ccccn1 | -4.05
NC(=O)c1c(NC(=O)C2CCCN(C(=O)c3ccco3)C2)sc2c1CCCC2 (centres unmarked) | 2.29
CCOc1ccc(CC(=O)Nc2ccccc2)cc1OCC | -0.088
CCCN1CCC(N2CCN(CCOCCO)CC2)CC1 | 2.99
CC1(c2ccc(Cl)cc2)NC(=O)NC1=O (centres unmarked) | 1.27
C/C(=N\CCCN1CCOCC1)c1c(C(F)(F)F)nn(-c2nc3ccccc3s2)c1O | 6.12
COc1cccc(NC(=O)C23CCC(C)(c4nc5ccccc5nc42)C3(C)C)c1 (centres unmarked) | -2.99
O=C1/C(=C/c2ccco2)N=C(N2CCCCC2)N1c1ccccc1 | -4.21
Cc1cc2nc(C)n(Cc3ccccc3)c2cc1C | 6.89
COC(=O)c1cc2oc(C)cc2n1Cc1cccc(F)c1 | -1.85
Cc1cc2cc(CNC(=O)C3CCCC3)ccc2[nH]1 | 1.55
CC(Oc1ccccc1)C(=O)Nc1ccc2c(c1)OCO2 (centres unmarked) | -2.65
Cc1ccc2nc(-c3ccccn3)cc(C(=O)O)c2c1 | -5.6
Cc1ccc(OCCCCCc2c(C)n[nH]c2C)cc1C | -0.351

Structure (SMILES) | % Inhibition @ 10 uM [%]
CC(C)CNC(=O)C(=O)NCc1ccc(Cl)cc1Cl | -3.5
NC(=O)/C(=C/c1ccc(Br)cc1)NC(=O)c1ccco1 | 2.13
O=C(c1ccncc1)N1CCN(Cc2ccccc2)CC1 | 1.38
Cc1ccc(-c2c(S(=O)(=O)c3ccccc3)cnc3cc(C)nn23)cc1 | 0.873
Clc1ccccc1Cn1cccc1C1=NCCO1 | -1.58
COc1ccc(-c2cc(C(=O)O)c3cc(C(C)C)ccc3n2)cc1 | 6.13
Cc1cc(-n2nc(C)c(/C=N/CC(=O)O)c2O)ccc1Br | 3.27
Cc1ccc(NC=C2C(=O)NC(=O)NC2=O)cc1CN1C(=O)c2ccccc2C1=O | -4.41
O=C(NC1CCCCC1)c1ccc(Br)c(S(=O)(=O)N2CCCCCC2)c1 | -0.519
COc1cc(OC)cc(C(=O)Nc2ccc(N3CCN(C(=O)C(C)C)CC3)c(Cl)c2)c1 | 3.49
O=C(C1CCN(S(=O)(=O)c2ccccc2)CC1)N1CCN(Cc2ccccc2)CC1 | -3.97
COCCNC(=S)N(CCc1c(C)[nH]c2ccc(F)cc12)Cc1cccs1 | 1.5
CCOc1ccc2c(C)cc(=O)oc2c1OCC | -2.08
Cc1cc(C)cc(OCC(=O)N2CCN(c3ccc(Cl)cc3)CC2)c1 | 2.76
CCN(CC)Cc1c(O)ccc2occ(C(=O)c3ccc(OC)cc3)c12 | -6.48
NC(=O)C1CCN(CC(c2ccccc2)c2ccccc2)CC1 | -4.75
Cc1cc(NC(=O)CSc2nc(O)c(C#N)c(-c3ccccc3)n2)no1 | -3.63
CC1=C(C(=O)NCc2ccc(OC(C)C)cc2)C2(CCCCC2)OC1=O | 0.233
CN(CCCNC(=O)c1ccc2nc(N3CCCCC3)sc2c1)C1CCCCC1 | -6.01
OCC/N=C/c1c(-c2ccccc2)nn(-c2nc3ccccc3s2)c1O | -1.22
CC(C)(C)c1ccc(S(=O)(=O)N2CCCC(C(=O)O)C2)cc1 (centres unmarked) | -3.08
COc1ccc(S(=O)(=O)N2CCN(c3cccc(Cl)c3)CC2)cc1 | 0.526
CCCC1CCC(C2=N/C(=C\c3cc(OC)ccc3OC)C(=O)O2)CC1 (centres unmarked) | -2.41
